Assay results: publication PMC10668032
Some of the results follow. At the low end of the ranking, values are background and their order means little.

molecular target: SIX1-Q177R homeodomain (UniProt Q15475); assay: universal protein binding microarray; conditions: Universal all-10-mer PBM (8x60K, AMADID 030236), 300 nM GST-tagged protein, Alexa Fluor 488 anti-GST; buffer, salt, pH and temperature not stated; high values mean tight binding; most listed sequences are background and not binding sites; double strand, one strand shown

Sequence	binding signal [E-score]
AGCTACTG	-0.106
CATACGTA	-0.217
GTAAAACA	0.0695
CCCACGAA	-0.11
AGCGCCCT	-0.0779
ATAGTCTG	-0.0411
CGCCCTGA	0.00581
ATCGTGCG	0.0462
CATCCGTA	-0.129
CCAAGACA	0.223
CAAACGCC	-0.155
CCCTGACA	0.181
AAGTTGGC	-0.321
GCCGGGGA	-0.0563
AGTCAAGA	-0.127
CGCGTCAG	0.154
TAAATGAA	-0.0323
CTCGGCAA	-0.0573
TAGAGACA	-0.0991
CCCTGTAG	0.06
ACCAGAAG	-0.0313
CCCGACCA	0.204

Sequence	binding signal [E-score]
CACATTGA	-0.0956
CGAGGAGA	-0.2
CATTCGCC	-0.135
TAGCTGCA	-0.117
ATCGGAGA	-0.031
ATGACCTG	-0.0659
CAGTCATC	-0.102
CGGCGAAG	-0.175
TAAACACA	0.214
CCATCAAA	-0.157
GCGTCTAC	-0.16
CAAGTCTG	-0.00441
CGTTCCCC	0.0159
AGATCCCC	0.243
AGAGATTA	-0.126
CAGGGATG	0.131
CTGCTCGA	-0.0578
CACAATCA	-0.12
ACGGCAGG	0.134
GCATGAGC	-0.168
ATCATCCA	0.00939
ATAATTGA	-0.112

Sequence	binding signal [E-score]
ATAATAAA	0.00984
CATATCAC	0.0401
AATTACCA	-0.0222
GGCCAGCA	-0.113
CTGTACCA	-0.234
CCGACTTC	-0.247
GATGTCCA	-0.212
CCGGTTCG	0.0997
TCAGAGAA	-0.168
AGAAGGCT	-0.327
AAAAAATT	-0.335
GGCACTGA	0.0286
TATATTAA	-0.0728
CTAAAGGC	-0.229
GGGTTCAA	0.0798
AGGCCACT	-0.115
ATTACACC	0.479
CGGATGTC	-0.0341
GGAACTCA	-0.167
CAACAACC	0.123
AACCCGTA	0.0388
CGACGCAA	0.0251

Sequence	binding signal [E-score]
GTGGTGAA	-0.106
ACTTCAGA	-0.00662
AGAAATCT	-0.163
ACGATCCC	0.14
CCAATCAA	0.0209
ACTTACAC	0.449
ACGCAGCG	0.0248
CCTTTAAG	-0.0325
ACACGGGA	0.411
ACTATCCA	0.0296
GTGCTATA	0.115
AACGGACG	-0.165
GGGAGCCA	-0.112
AGAACGGG	-0.00587
GTCAGACA	0.114
ATAGTGAA	-0.176
CCGATTTA	-0.0162
CTAAAACA	0.211
GCTAAAGC	-0.065
ATAGGAAC	-0.0361
ATCACGAT	-0.0474
CAAAATGC	-0.0152

Sequence	binding signal [E-score]
CCCACATA	0.134
ACGCCGCA	-0.00867
CGTAATGC	-0.0208
CCAGTGGC	-0.0089
AAACGCCT	-0.219
AACTTACG	0.0647
ACTATTCG	-0.177
AGGATCGC	0.0802
CGCCACGA	0.0294
CGAGCTTA	-0.164
TCAAGTAA	0.0548
AATGTCGT	-0.0692
CAGCCAGG	0.0687
TATCAACA	0.288
ATCCGTAC	0.0773
CGGTTAGC	0.00396
CAGATTGA	0.00399
AACCTGAT	-0.213
CTTAATCA	-0.0318
ACTTCTCT	-0.0832
CATCCAAC	-0.0665
CTACAAGA	-0.163
